Source: US10299477B2 (priority 2015, dated 2019)

What was measured:
Format in all cases: in vivo
[1] = test system: Blumeria graminis f sp. hordei; experiment: Test Example D: Powdery mildew on barley; conditions: for Test D control value (powdery mildew on barley) / Test D (control value class): 250 ppm spray; for Test D control value (powdery mildew on barley): preventive, control value class; for Test D (control value class, powdery mildew on barley): in vivo; for Test D (control value class): powdery mildew on barley
From the text: [Test Example D] Powdery Mildew on Barley
After the sprayed dilutions were dried, conidia of Blumeria graminis f sp. hordei were inoculated to the plants by shaking off.

Alternaia brassicicola = experiment: Test Example C: Alternaria sooty spot on cabbage; conditions: for Test C control value (Alternaria sooty spot on cabbage) / Test C (control value class): 250 ppm spray; for Test C control value (Alternaria sooty spot on cabbage): preventive, control value class; for Test C (control value class, Alternaria sooty spot on cabbage): in vivo; for Test C (control value class): Alternaria sooty spot on cabbage
From the text: [Test Example C] Alternaria Sooty Spot on Cabbage
Seeds of a test plant (cabbage variety: Shikidori) were planted followed by cultivating until the cotyledons extended.

Botrytis cinerea = experiment: Test Example B: Gray mold on tomato; conditions: for Test B control value (gray mold on tomato) / Test B (control value class): 250 ppm spray; for Test B control value (gray mold on tomato): preventive, control value class; for Test B (control value class, gray mold on tomato): in vivo; for Test B (control value class): gray mold on tomato, Botrytis cinerea
From the text: [Test Example B] Gray Mold on Tomato
Seeds of a test plant (tomato variety: Oogata Fukuju) were planted followed by cultivating until three to five first leaves (true leaves) appeared.

Puccinia recondita = experiment: Test Example E: Brown rust on wheat; conditions: for Test E control value (brown rust on wheat) / Test E (control value class): 250 ppm spray; for Test E control value (brown rust on wheat): preventive, control value class; for Test E (control value class, brown rust on wheat): in vivo; for Test E (control value class): brown rust on wheat, Puccinia recondita
From the text: [Test Example E] Brown Rust on Wheat

Plasmopara viticola = experiment: Test Example G: Downy mildew on vine; conditions: for Test G control value (downy mildew on vine): 250 ppm spray (2.5 ml/pot), preventive, control value class; for Test G control value (downy mildew on vine) / Test G (control value class): 7-10 days after inoculation; for Test G (control value class, downy mildew on vine): 250 ppm, sprayed 2.5 ml/pot before inoculation, evaluated 7-10 days after inoculation; for Test G (control value class): downy mildew on vine, Plasmopara viticola, 250 ppm spray
From the text: [Test Example G] Downy Mildew on Vine
Seeds of a test plant (grape variety: Neomuscat) were planted followed by cultivating until three to four first leaves appeared. […] After the sprayed dilutions were dried, a zoosporangia suspension (1-2×10^4 zoosporangia/ml) of Plasmopara viticola was inoculated to the plants by spraying.

| Structure (SMILES) | Test D control value (powdery mildew on barley) [1] | Test C control value (Alternaria sooty spot on cabbage) (Alternaia brassicicola) | Test B control value (gray mold on tomato) (Botrytis cinerea) | Test E control value (brown rust on wheat) (Puccinia recondita) | Test G control value (downy mildew on vine) (Plasmopara viticola) | Test D (control value class) [1] | Test C (control value class) (Alternaia brassicicola) | Test B (control value class) (Botrytis cinerea) | Test E (control value class) (Puccinia recondita) | Test G (control value class) (Plasmopara viticola) | further results |
| --- | --- | --- | --- | --- | --- | --- | --- | --- | --- | --- | --- |
| CCn1c(-c2c(F)cccc2F)c(-c2ccc(OC)cc2)cc(Cl)c1=O [Compound 302] | H (H shows more than 50% of control values) | H (H shows more than 50% of control values) | H (H shows more than 50% of control values) | H (H shows more than 50% of control values) | L (L shows 50% or less of control values) |  |  |  |  |  |  |
| CCOc1cc(F)c(-c2c(-c3cccc(OC)c3Cl)cc(Br)c(=O)n2CC)c(F)c1 [Compound 643] |  |  |  |  |  |  |  |  |  |  | Test D (control value class, powdery mildew on barley) [1]: H (H shows more than 50% of control values); Test C (control value class, Alternaria sooty spot on cabbage) (Alternaia brassicicola): H (H shows more than 50% of control values); Test B (control value class, gray mold on tomato) (Botrytis cinerea): H (H shows more than 50% of control values); Test E (control value class, brown rust on wheat) (Puccinia recondita): H (H shows more than 50% of control values); Test G (control value class, downy mildew on vine) (Plasmopara viticola): H (H shows more than 50% of control values) |
| Cn1c(-c2c(F)cccc2F)c(-c2cc(F)cc(F)c2Cl)ccc1=O [Compound 553] |  |  |  |  |  | H (H shows more than 50% of control values) | H (H shows more than 50% of control values) | H (H shows more than 50% of control values) | H (H shows more than 50% of control values) | H (H shows more than 50% of control values) |  |
| CCn1c(-c2c(F)cccc2F)c(-c2cc(Cl)ccc2F)cc(Cl)c1=O [Compound 523] |  |  |  |  |  | L (L shows 50% or less of control values) | L (L shows 50% or less of control values) | H (H shows more than 50% of control values) | H (H shows more than 50% of control values) | L (L shows 50% or less of control values) |  |
| CCn1c(-c2c(F)cccc2F)c(-c2cc(Cl)ccc2Cl)cc(C)c1=O [Compound 470] |  |  |  |  |  | H (H shows more than 50% of control values) | H (H shows more than 50% of control values) | H (H shows more than 50% of control values) | H (H shows more than 50% of control values) | H (H shows more than 50% of control values) |  |
| CCn1c(-c2c(F)cc(F)cc2F)c(-c2ccc(C)cc2Cl)cc(Cl)c1=O [Compound 628] |  |  |  |  |  |  |  |  |  |  | Test D (control value class, powdery mildew on barley) [1]: H (H shows more than 50% of control values); Test C (control value class, Alternaria sooty spot on cabbage) (Alternaia brassicicola): H (H shows more than 50% of control values); Test B (control value class, gray mold on tomato) (Botrytis cinerea): H (H shows more than 50% of control values); Test E (control value class, brown rust on wheat) (Puccinia recondita): H (H shows more than 50% of control values); Test G (control value class, downy mildew on vine) (Plasmopara viticola): L (L shows 50% or less of control values) |
| Cc1ccc(-c2cc(Br)c(=O)n(C)c2-c2c(F)cccc2F)cc1 [Compound 273] | H (H shows more than 50% of control values) | H (H shows more than 50% of control values) | H (H shows more than 50% of control values) | H (H shows more than 50% of control values) | H (H shows more than 50% of control values) |  |  |  |  |  |  |
| COc1cc(OC)cc(-c2ccc(=O)n(C)c2-c2c(F)cc(Br)cc2F)c1 [Compound 203] | L (L shows 50% or less of control values) | H (H shows more than 50% of control values) | H (H shows more than 50% of control values) | H (H shows more than 50% of control values) | L (L shows 50% or less of control values) |  |  |  |  |  |  |
| CCN1C(=O)CCC(c2cccc(C(F)(F)F)c2)=C1c1c(F)cccc1F [Compound 283] | H (H shows more than 50% of control values) | L (L shows 50% or less of control values) | H (H shows more than 50% of control values) | L (L shows 50% or less of control values) | L (L shows 50% or less of control values) |  |  |  |  |  |  |
| Cn1c(-c2c(F)cccc2F)c(-c2cc(OCC(F)(F)F)ccc2Cl)ccc1=O [Compound 263] | L (L shows 50% or less of control values) | H (H shows more than 50% of control values) | H (H shows more than 50% of control values) | H (H shows more than 50% of control values) | H (H shows more than 50% of control values) |  |  |  |  |  |  |
